Our source for the cAMP reporter score and surface expression score values is the GPR68 mutational scans of Howard et al. (2025).

Scores whose standard error is large were omitted. Two further conditions of the source, in which the scores hardly spread, are not listed. In variant names, del marks residues removed and ins residues inserted between the two positions. For some assays here: The concentration of ogerin is not given here.

B1: GPR68, Q15743 (parent)
chain: MGNITADNSSMSCTIDHTIHQTLAPVVYVTVLVVGFPANCLSLYFGYLQIKARNELGVYLCNLTVADLFYICSLPFWLQYVLQHDNWSHGDLSCQVCGILLYENIYISVGFLCCISVDRYLAVAHPFRFHQFRTLKAAVGVSVVIWAKELLTSIYFLMHEEVIEDENQHRVCFEHYPIQAWQRAINYYRFLVGFLFPICLLLASYQGILRAVRRSHGTQKSRKDQIQRLVLSTVVIFLACFLPYHVLLLVRSVWEASCDFAKGVFNAYHFSLLLTSFNCVADPVLYCFVSETTHRDLARLRGACLAFLTCSRTGRAREAYPLGAPEASGKSGAQGEEPELLTKLHPAFQTPNSPGSGGFPTGRLA

In series [1] the parent is B1. Nature of the series: cAMP reporter score (Enrich2 score, wild type = 0); higher = more signal; HEK293T, FACS bins.
Variants of B1 are the subject of series [2]. Nature of the series: surface expression score (Enrich2 score, wild type = 0); higher = more signal; HEK293T, FACS bins.

Regarding A333_Q334insGSG, the cAMP reporter score in series [1] (pH 5.5) came to 0.344; in series [1] (pH 6) it was 0.437; in series [1] (pH 6, modulator: ogerin) it was 0.735; in series [1] (pH 6.5, modulator: ogerin), 0.63. Besides, in series [2], the surface expression score was determined as 0.293.

On to L340M, for which the cAMP reporter score in series [1] (pH 5.5) was 0.114; in series [1] (pH 6), -0.828; in series [1] (pH 6, modulator: ogerin), -0.249; in series [1] (pH 6.5, modulator: ogerin) it was 0.194. In series [2], the surface expression score was -0.092.

For the variant L340F, the cAMP reporter score in series [1] (pH 5.5) is 0.471; in series [1] (pH 6), -0.27; in series [1] (pH 6, modulator: ogerin), 0.22; in series [1] (pH 6.5, modulator: ogerin), 0.451. The surface expression score in series [2] was found to be 0.539.

As for L340N, the cAMP reporter score in series [1] (pH 5.5) was 0.643; in series [1] (pH 6), 0.62; in series [1] (pH 6, modulator: ogerin) it was 0.303; in series [1] (pH 6.5, modulator: ogerin), 0.835. In series [2], the surface expression score was found to be 0.483.

As for L340K, the cAMP reporter score came to 1.11 in series [1] (pH 5.5); 0.187 in series [1] (pH 6); 0.602 in series [1] (pH 6, modulator: ogerin); 1.42 in series [1] (pH 6.5, modulator: ogerin). In addition, the surface expression score in series [2] came out at 1.87.

As for L340H, the cAMP reporter score in series [1] (pH 5.5) was 0.9; in series [1] (pH 6), 0.592; in series [1] (pH 6, modulator: ogerin), 1.7; in series [1] (pH 6.5, modulator: ogerin), 1.34. Besides, in series [2], the surface expression score was found to be 0.817.

Turning to L340V, the cAMP reporter score in series [1] (pH 5.5) is 0.708; in series [1] (pH 6) it was 0.044; in series [1] (pH 6, modulator: ogerin), 0.757; in series [1] (pH 6.5, modulator: ogerin) it was 0.064. The surface expression score in series [2] was found to be 1.21.

Take L340A: the cAMP reporter score was 0.096 in series [1] (pH 5.5); -0.308 in series [1] (pH 6); 0.339 in series [1] (pH 6, modulator: ogerin); 0.371 in series [1] (pH 6.5, modulator: ogerin). Besides, the surface expression score in series [2] was determined as 0.113.

On to L340T, for which the cAMP reporter score was 0.207 in series [1] (pH 5.5); 0.514 in series [1] (pH 6); 0.21 in series [1] (pH 6, modulator: ogerin); -0.007 in series [1] (pH 6.5, modulator: ogerin). The surface expression score in series [2] came to 0.298.

As to L340I, the cAMP reporter score in series [1] (pH 5.5) amounted to 1.21; in series [1] (pH 6), 1.32; in series [1] (pH 6, modulator: ogerin) it was 0.517; in series [1] (pH 6.5, modulator: ogerin), 0.865. Besides, the surface expression score in series [2] is 0.897.

Regarding L340Q, the cAMP reporter score was 1.48 in series [1] (pH 5.5); 0.513 in series [1] (pH 6); 0.071 in series [1] (pH 6, modulator: ogerin); 1.51 in series [1] (pH 6.5, modulator: ogerin).

For L340G, the cAMP reporter score in series [1] (pH 5.5) came to 1.03; in series [1] (pH 6), 0.703; in series [1] (pH 6, modulator: ogerin), 1.8; in series [1] (pH 6.5, modulator: ogerin), 0.926. The surface expression score in series [2] is 1.04.

With L340P, the cAMP reporter score in series [1] (pH 5.5) is 1.07; in series [1] (pH 6) it was 0.142; in series [1] (pH 6, modulator: ogerin) it was 2.11; in series [1] (pH 6.5, modulator: ogerin), 0.63. The surface expression score in series [2] was 0.991.

With L340W, the cAMP reporter score amounted to 0.789 in series [1] (pH 5.5); 0.789 in series [1] (pH 6, modulator: ogerin); 1.09 in series [1] (pH 6.5, modulator: ogerin). Further, in series [2], the surface expression score is -0.114.

Consider L340R, for which the cAMP reporter score in series [1] (pH 5.5) worked out at 0.342; in series [1] (pH 6, modulator: ogerin), 0.449. In series [2], the surface expression score is 0.313.

For L340E, the cAMP reporter score in series [1] (pH 5.5) was 0.246; in series [1] (pH 6) it was -0.327; in series [1] (pH 6, modulator: ogerin), 0.027; in series [1] (pH 6.5, modulator: ogerin) it was 0.166. Further, the surface expression score in series [2] was determined as 0.605.

As to L340Y, the cAMP reporter score in series [1] (pH 5.5) is 1.31; in series [1] (pH 6), 1.28; in series [1] (pH 6, modulator: ogerin), -0.309. In series [2], the surface expression score was 0.418.

As to L340S, the cAMP reporter score in series [1] (pH 5.5) was 1.06; in series [1] (pH 6, modulator: ogerin) it was -0.132; in series [1] (pH 6.5, modulator: ogerin) it was 0.349. Moreover, the surface expression score in series [2] was -0.115.

L340D: the cAMP reporter score in series [1] (pH 5.5) worked out at 0.48; in series [1] (pH 6), 0.55; in series [1] (pH 6, modulator: ogerin), 0.899; in series [1] (pH 6.5, modulator: ogerin) it was 1.03. In series [2], the surface expression score came out at 0.84.

Take L340C: the cAMP reporter score amounted to 1.73 in series [1] (pH 5.5); 1.08 in series [1] (pH 6); 1.73 in series [1] (pH 6, modulator: ogerin); 0.687 in series [1] (pH 6.5, modulator: ogerin).

As to L340_T342del, the cAMP reporter score in series [1] (pH 5.5) came to 0.629; in series [1] (pH 6) it was 1.79; in series [1] (pH 6, modulator: ogerin), 0.752; in series [1] (pH 6.5, modulator: ogerin), 1.84. In series [2], the surface expression score stood at 0.737.

With E336D, the cAMP reporter score is -0.524 in series [1] (pH 5.5); 0.722 in series [1] (pH 6); -0.406 in series [1] (pH 6, modulator: ogerin); -0.534 in series [1] (pH 6.5, modulator: ogerin). In series [2], the surface expression score was -0.421.

Consider E336S, for which the cAMP reporter score was -0.582 in series [1] (pH 5.5) and 0.003 in series [1] (pH 6, modulator: ogerin). Moreover, the surface expression score in series [2] was -0.135.

E336R: the cAMP reporter score came out at 0.622 in series [1] (pH 5.5); 0.166 in series [1] (pH 6); 1.37 in series [1] (pH 6, modulator: ogerin); 0.148 in series [1] (pH 6.5, modulator: ogerin). Besides, in series [2], the surface expression score stood at 0.458.

E336M: the cAMP reporter score in series [1] (pH 5.5) was 0.009; in series [1] (pH 6), 0.462; in series [1] (pH 6, modulator: ogerin), 0.305; in series [1] (pH 6.5, modulator: ogerin), -0.127. Also, in series [2], the surface expression score is -0.794.

Turning to E336A, the cAMP reporter score in series [1] (pH 5.5) was 1.45; in series [1] (pH 6), -0.176; in series [1] (pH 6, modulator: ogerin), 1.95; in series [1] (pH 6.5, modulator: ogerin), 1.67. In addition, in series [2], the surface expression score came out at 0.993.

Regarding E336F, the cAMP reporter score in series [1] (pH 5.5) is 0.693; in series [1] (pH 6), -0.255; in series [1] (pH 6, modulator: ogerin) it was 1.29; in series [1] (pH 6.5, modulator: ogerin) it was 0.887. For the same variant, the surface expression score in series [2] amounted to 0.298.

Turning to E336L, the cAMP reporter score in series [1] (pH 5.5) was determined as 0.995; in series [1] (pH 6, modulator: ogerin), 1.53; in series [1] (pH 6.5, modulator: ogerin), 0.981. In addition, the surface expression score in series [2] was -0.031.

Turning to E336P, the cAMP reporter score in series [1] (pH 5.5) was 0.807; in series [1] (pH 6) it was -0.674; in series [1] (pH 6, modulator: ogerin) it was 0.645; in series [1] (pH 6.5, modulator: ogerin), 1.06. Further, the surface expression score in series [2] was 0.39.

E336T: the cAMP reporter score in series [1] (pH 5.5) was -0.497; in series [1] (pH 6) it was 1.58; in series [1] (pH 6, modulator: ogerin), 0.525; in series [1] (pH 6.5, modulator: ogerin), 1.43. Further, the surface expression score in series [2] was 0.183.

On to E336V, for which the cAMP reporter score in series [1] (pH 5.5) is 0.768; in series [1] (pH 6), -1; in series [1] (pH 6, modulator: ogerin), 0.203; in series [1] (pH 6.5, modulator: ogerin), 0.891. Also, the surface expression score in series [2] was -0.186.

For E336G, the cAMP reporter score in series [1] (pH 5.5) was 1.15; in series [1] (pH 6, modulator: ogerin) it was 0.014; in series [1] (pH 6.5, modulator: ogerin), -0.933. Also, the surface expression score in series [2] was -0.369.
